Source: the supplement of paper PMC4604168 (melanoma cell lines)
Some of the results follow. Many values rest on one well or one pass, so single values are uncertain.

The compounds below were run on WM3526 (assay: cell count relative to DMSO control; melanoma cells; higher = more viable cells). Settings: library dose: low library concentration; 72 h.
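Note: cell number obtained by counting DAPI-stained nuclei in high-throughput microscope images with image analysis software, screen run in 1,536-well plates.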

Row | Structure (SMILES) | cell count [%]
1 | C[C@]12O[C@H](C[C@]1(O)CO)n1c3ccccc3c3c4c(c5c6ccccc6n2c5c31)CNC4=O [Lestaurtinib] + O=C(Oc1ccc([N+](=O)[O-])cc1)N1CCC(C(O)(c2ccc3c(c2)OCO3)c2ccc3c(c2)OCO3)CC1 [JZL184] (first compound 0.004 µM, partner dose 1 µM) | 64.6
2 | C[As](C)SC[C@H](NC(=O)CC[C@H](N)C(=O)O)C(=O)NCC(=O)O [Darinaparsin] + Cc1cc([N+](=O)[O-])ccc1NS(=O)(=O)c1cc(Cl)ccc1Cl [FH535] (first compound 0.4 µM, partner dose 1 µM) | 89.3
3 | C[C@]12O[C@H](C[C@]1(O)CO)n1c3ccccc3c3c4c(c5c6ccccc6n2c5c31)CNC4=O [Lestaurtinib] + CN(C)S(=O)(=O)c1ccc2c(c1)/C(=C/c1cc3c([nH]1)CCCC3)C(=O)N2 [SU6656] (first compound 0.004 µM, partner dose 0.4 µM) | 70.1
4 | Cn1cc(C2=C(c3cn(C4CCN(Cc5ccccn5)CC4)c4ccccc34)C(=O)NC2=O)c2ccccc21 [Enzastaurin] + CNC(=O)c1cc(Oc2ccc(NC(=O)Nc3ccc(Cl)c(C(F)(F)F)c3)cc2)ccn1 [sorafenib] (first compound 0.8 µM, partner dose 0.4 µM) | 97.2
5 | C[C@]12O[C@H](C[C@]1(O)CO)n1c3ccccc3c3c4c(c5c6ccccc6n2c5c31)CNC4=O [Lestaurtinib] + CCCCCCCCCCCC1=C(O)C(=O)C=C(O)C1=O [Embelin] (first compound 0.004 µM, partner dose 1.2 µM) | 110
6 | C[C@]12O[C@H](C[C@]1(O)CO)n1c3ccccc3c3c4c(c5c6ccccc6n2c5c31)CNC4=O [Lestaurtinib] + CCc1ccc(CCOc2ccc(CC3SC(=O)NC3=O)cc2)nc1 [pioglitazone] (first compound 0.004 µM, partner dose 2 µM) | 60.9
7 | Cn1cc(C2=C(c3cn(C4CCN(Cc5ccccn5)CC4)c4ccccc34)C(=O)NC2=O)c2ccccc21 [Enzastaurin] + CC1(C)NC(=O)N(c2ccc([N+](=O)[O-])c(C(F)(F)F)c2)C1=O [nilutamide] (first compound 0.8 µM, partner dose 1 µM) | 101
8 | N.N.[Cl][Pt][Cl] [cisplatin] + COc1cc(Nc2ncc(F)c(Nc3ccc4c(n3)NC(=O)C(C)(C)O4)n2)cc(OC)c1OC [Tamatinib] (first compound 1.6 µM, partner dose 0.4 µM) | 66.3
9 | C[C@]12O[C@H](C[C@]1(O)CO)n1c3ccccc3c3c4c(c5c6ccccc6n2c5c31)CNC4=O [Lestaurtinib] + O=C(O)c1ccc(-c2c[nH]c3ncc(-c4ccccc4)cc23)cc1C1CCCC1 [GSK650394] (first compound 0.004 µM, partner dose 0.16 µM) | 95
10 | Cn1cc(C2=C(c3cn(C4CCN(Cc5ccccn5)CC4)c4ccccc34)C(=O)NC2=O)c2ccccc21 [Enzastaurin] + NC(=O)Nc1cc(-c2cccc(F)c2)sc1C(=O)N[C@H]1CCCNC1 [AZD7762] (first compound 0.8 µM, partner dose 0.02 µM) | 78.1
11 | Cn1cc(C2=C(c3cn(C4CCN(Cc5ccccn5)CC4)c4ccccc34)C(=O)NC2=O)c2ccccc21 [Enzastaurin] + COc1ccc2c(c1)CCC1C2CCC2(C)C(NCCCCCCN3C(=O)C=CC3=O)CCC12 [U73122] (first compound 0.8 µM, partner dose 0.4 µM) | 108
12 | C[As](C)SC[C@H](NC(=O)CC[C@H](N)C(=O)O)C(=O)NCC(=O)O [Darinaparsin] + c1cc(-c2cnn3cc(-c4ccc(OCCN5CCCCC5)cc4)cnc23)ccn1 [Dorsomorphin] (first compound 0.4 µM, partner dose 0.4 µM) | 90.3
13 | N.N.[Cl][Pt][Cl] [cisplatin] + COC(=O)c1sccc1S(=O)(=O)Nc1ccc(Nc2ccccc2)cc1OC [GSK0660] (first compound 1.6 µM, partner dose 1 µM) | 125
14 | C[As](C)SC[C@H](NC(=O)CC[C@H](N)C(=O)O)C(=O)NCC(=O)O [Darinaparsin] + Cc1nc(Nc2ncc(C(=O)Nc3c(C)cccc3Cl)s2)cc(N2CCN(CCO)CC2)n1 [dasatanib] (first compound 0.4 µM, partner dose 0.004 µM) | 98.4
